{"source": "PubChem BioAssay AID1347417", "about": "(National Center for Advancing Translational Sciences (NCATS), 2020)", "note": "Screen size: about 120,000 compounds; about 5,300 (4.4%) were called active. The inconclusive results got no clear call from the source; some entries with a clear call stand among them for comparison. The call rests on the fitted dose curve; in most records, active means well fitted inhibition curve with a large enough effect; inconclusive means small, poorly fitted or top-dose-only effect; inactive means no such curve, though single readings can be large or run the other way. A potency beside an inconclusive call is a rough fit, not a confirmed value. Potency means the concentration at half of the fitted maximal effect; tags describe the fitted curve by direction and shape.", "data": [{"experiment": "qHTS Primary assay for Inhibitors of Plasmodium falciparum Dd2 growth in vitro; further: nearly all actives have a fitted effect of over 65% in size;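 on activity, negative = inhibition: plate controls were DMSO vehicle for no effect and reference drug for full effect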", "conditions": "P. falciparum Dd2 growth, SYBR Green, 72 h; activity, negative = inhibition: at 28.9 µM (top of the series) unless noted; series mostly up to 28.9 µM", "how_it_was_run": "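Readout: SYBR Green fluorescence, 485 nm excitation, 535 nm emission, after ~16 h lysis at 37C. Before that, Dd2-infected red cells (2.5% hematocrit) grew 72 h with compound, 29 uM top final concentration.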", "values": [{"smiles": "COc1cc2cc(CNc3ccc(C)cc3)c(=O)n(CC(=O)Nc3ccc(C(C)C)cc3)c2cc1OC", "Potency": "inconclusive: 17.8 µM [inhibitor, single point]"}, {"smiles": "COc1ccc(OC)c(CNC(=O)Cc2cccn2-c2ccc(C)cc2)c1", "Potency": "inconclusive: 17.8 µM [inhibitor, single point]"}, {"smiles": "NC(=O)c1cccc(-c2cc(-c3ccncc3)c3cncn3c2)c1", "Potency": "inconclusive: 14.1 µM [inhibitor, single point]"}, {"smiles": "CN(C)c1ccc(CNC(=O)CCC(=O)N2Cc3ccccc3Oc3ncccc32)cc1", "Potency": "inconclusive: 17.8 µM [inhibitor, single point]"}, {"smiles": "COc1ccccc1NC(=O)c1ccccc1NC(=O)c1ccccc1", "activity, negative = inhibition": "inactive: -0.822%"}, {"smiles": "COc1ccc(NC(=O)CSc2nc(-c3ccc(OC)cc3)[nH]c2-c2ccc(F)cc2)cc1", "Potency": "inconclusive: 0.0178 µM [inhibitor, full curve]"}, {"smiles": "CN1CCC2(Cc3ccccc3CN(C(=O)CCN)C2)C1", "note": "(stereo not drawn)", "activity, negative = inhibition": "inconclusive: -120% [inhibitor] [at 44.1 µM]"}, {"smiles": "Cc1ccc(CN(C(=O)COc2ccc(C(C)(C)C)cc2)C2CCS(=O)(=O)C2)o1", "note": "(stereo not drawn)", "Potency": "inconclusive: 7.08 µM [inhibitor, partial curve, poor fit]"}, {"smiles": "COc1ccc(CCN(Cc2ccccc2F)CC2(O)CCCNC2)cc1", "note": "(stereo not drawn)", "Potency": "active: 12.6 µM"}, {"smiles": "COc1ccc(-c2cc3nc4c(c(=O)n3[nH]2)CN(C(=O)CCCc2c[nH]c3ccccc23)CC4)cc1", "Potency": "inconclusive: 3.98 µM [inhibitor, partial curve, poor fit]"}, {"smiles": "COc1cccc(NC(=O)NC[C@H]2O[C@H](Cc3cc(COc4ccccc4)on3)CC[C@@H]2O)c1", "outcome": "inactive"}, {"smiles": "CSc1cccc(NC(=O)O[C@@H]2CC[C@]3(C)C(CC[C@@H](O)[C@H]3CC(=O)N3CCC(C)CC3)[C@]2(C)CO)c1", "note": "(stereo partly drawn)", "Potency": "inconclusive: 0.251 µM [inhibitor, partial curve, poor fit]"}, {"smiles": "COc1ccc2oc(=O)cc(CN3CCN(c4ccccc4OC)CC3)c2c1", "Potency": "inconclusive: 11.2 µM [inhibitor, single point]"}, {"smiles": "N#Cc1ccc(C(=O)N2C[C@@H]3C[C@H](C2)c2c(-c4ccccc4F)ccc(=O)n2C3)cc1", "activity, negative = inhibition": "inactive: -10.8% [at 44.1 µM]"}, {"smiles": "O=C(NCc1ccccc1Cl)c1ccc2nc(Cc3ccccc3)oc2c1", "activity, negative = inhibition": "inconclusive: -75.7% [inhibitor] [at 0.594 µM]"}, {"smiles": "CN1c2cc(C(=O)NCc3cc(F)cc(F)c3)ccc2C(=O)N2CCCCC21", "note": "(stereo not drawn)", "Potency": "inconclusive: 20 µM [inhibitor, single point]"}, {"smiles": "C[C@]1(CO)[C@H]2Cc3sc(NC(=O)C4CCCCC4)nc3[C@@H](CC(=O)NCc3cccs3)[C@]2(C)CC[C@H]1O", "Potency": "inconclusive: 15.8 µM [inhibitor, single point]"}, {"smiles": "CCS(=O)(=O)N1CCCN(Cc2ccncc2)C(c2ccccc2)CC(=O)NCC1", "note": "(stereo not drawn)", "Potency": "inconclusive: 17.8 µM [inhibitor, single point]"}, {"smiles": "COc1ccccc1N1CCCc2ncc(C(=O)N3CC[S+](=O)([O-])CC3)cc21", "activity, negative = inhibition": "inactive: 57.8% [at 44.1 µM]"}, {"smiles": "CCN1CCN(c2cc(C)c3cc(NC(=O)c4cc(Br)ccc4Cl)ccc3n2)CC1", "Potency": "inconclusive: 10 µM [inhibitor, single point]"}, {"smiles": "O=C(NC1CCN(c2cc(-c3cccs3)[nH]n2)C1)c1cccc(OC(F)(F)F)c1", "note": "(stereo not drawn)", "outcome": "inactive"}, {"smiles": "COc1cccc([S+](=O)([O-])N2CCC3(CC(C)=NO3)C2)c1", "note": "(stereo not drawn)", "activity, negative = inhibition": "inactive: -5.91% [at 44.1 µM]"}, {"smiles": "CC(=O)N1CCCC(c2[nH]ccc2C(=O)NCCCn2cccn2)C1", "note": "(stereo not drawn)", "activity, negative = inhibition": "inactive: 12.3%"}, {"smiles": "Cc1cc(Cl)ccc1Nc1ncncc1-c1nc(-c2ccccc2)no1", "Potency": "inconclusive: 1.41 µM [inhibitor, partial curve, poor fit]"}, {"smiles": "CN(Cc1ccc(-c2ccccc2)cc1)C(=O)c1ccc(Cl)nc1", "Potency": "inconclusive: 25.1 µM [inhibitor, single point]"}, {"smiles": "CCC(CC)C(=O)Nc1cccc(-c2nc3ncccn3c2C)c1", "Potency": "inconclusive: 17.8 µM [inhibitor, single point]"}, {"smiles": "O=C1NCCCCCCN(C(=O)CCCc2ccccc2)[C@H]2CCCC[C@@H]12", "outcome": "inactive"}, {"smiles": "CC(C)(C)c1ccc(C(=O)Nc2nc3c(s2)C[C@@H]2[C@](C)(CO)[C@H](O)CC[C@@]2(C)[C@@H]3CC(=O)NCc2ccco2)cc1", "Potency": "inconclusive: 5.01 µM [inhibitor, partial curve, poor fit]"}, {"smiles": "CN1CCN(CCNC(=O)c2cnn(-c3cccc(Cl)c3)c2C2CCN(C(=O)OC(C)(C)C)CC2)CC1", "Potency": "inconclusive: 10 µM [inhibitor, single point]"}, {"smiles": "Cc1cc(C(=O)N2CCCn3ccnc3C2c2ccccc2)n(C)n1", "note": "(stereo not drawn)", "activity, negative = inhibition": "inactive: 21.5%"}, {"smiles": "CCc1noc(-c2cn(C3CCCN(C(=O)c4ccc(F)c(F)c4)C3)nn2)n1", "note": "(stereo not drawn)", "outcome": "inactive"}, {"smiles": "COc1ccccc1C(=O)NC1CCN(C(=O)c2cc3c(=O)[nH]c(C)cn3n2)CC1", "Potency": "inconclusive: 3.16 µM [inhibitor, full curve, poor fit]"}, {"smiles": "COc1ccccc1CNC(=O)[C@H]1CN2CCC1C[C@@H]2Cn1cc(CN(C)Cc2ccccc2)nn1", "note": "(stereo partly drawn)", "Potency": "inconclusive: 17.8 µM [inhibitor, single point]"}, {"smiles": "CCN(CC)C(=O)c1sc2c(c1C)c(=O)n(-c1ccc(OC)cc1OC)c(=O)n2Cc1cc(C)ccc1C", "Potency": "inconclusive: 17.8 µM [inhibitor, single point]"}, {"smiles": "Cc1cc(Cn2cc3c4c(cccc42)[C@H](CC(C)C)N[C@H](C(=O)NC(C)C)C3)no1", "Potency": "inconclusive: 3.98 µM [inhibitor, full curve, poor fit]"}, {"smiles": "CCCNC(=O)N1C[C@@H]2C(=O)N(C(CC)c3cccs3)C(=O)[C@@H]2C1", "note": "(stereo partly drawn)", "activity, negative = inhibition": "inactive: -0.271%"}, {"smiles": "CCc1nc2c(c(-c3ccc(OC)cc3)n1)CCN([S+](=O)([O-])c1cccc(OC)c1)CC2", "Potency": "inconclusive: 20 µM [inhibitor, single point]"}, {"smiles": "Cc1cc(C)cc(-c2ccc(CN3C4CCC3CN(C(=O)Nc3ccccc3F)C4)cc2)c1", "Potency": "inconclusive: 11.2 µM [inhibitor, single point]"}, {"smiles": "Cc1ccc(-c2nnc(C3CN(C(=O)c4cccc(F)c4)CC34CCOCC4)o2)cc1", "note": "(stereo not drawn)", "Potency": "active: 3.98 µM"}, {"smiles": "CN(C)[S+](=O)([O-])c1ccc2c(c1)OCCN(Cc1ccncc1F)C2", "activity, negative = inhibition": "inactive: -4.7% [at 44.1 µM]"}, {"smiles": "CN(C)c1ccc(CN2CCn3c(nnc3-c3ccccc3)C2)cc1", "Potency": "inconclusive: 20 µM [inhibitor, partial curve, poor fit]"}, {"smiles": "COc1cccc(C(=O)NCC(c2ccc(N(C)C)cc2)N2CCc3ccccc32)c1OC", "note": "(stereo not drawn)", "Potency": "inconclusive: 10 µM [inhibitor, single point]"}, {"smiles": "CC(C)c1ccc(C(=O)Nc2ccc(-c3nc4ccccc4s3)c(Cl)c2)cc1", "Potency": "inconclusive: 12.6 µM [inhibitor, single point]"}, {"smiles": "CCCCc1cc(C[C@H]2CNCC[C@H]2CC(=O)Nc2ccccc2)no1", "Potency": "inconclusive: 10 µM [inhibitor, partial curve, poor fit]"}, {"smiles": "CCC(C)NC(=O)CCN(CC(C)C)C(=O)c1cc(C)oc1C", "note": "(stereo not drawn)", "Potency": "inconclusive: 12.6 µM [inhibitor, partial curve, poor fit]"}, {"smiles": "O=C1CC2(CCN(Cc3ccc(F)cc3)CC2)Oc2cc(Cl)ccc21", "Potency": "inconclusive: 2.51 µM [inhibitor, partial curve]"}, {"smiles": "CCc1noc(-c2cn(C3CCCN(C(=O)c4ccc(F)c(Cl)c4)C3)nn2)n1", "note": "(stereo not drawn)", "Potency": "inconclusive: 1.78 µM [inhibitor, single point]"}, {"smiles": "COCCn1cnc2ccc(-c3ccc4c(ccn4C)c3)nc2c1=O", "Potency": "inconclusive: 5.62 µM [inhibitor, single point]"}, {"smiles": "CCOC(=O)c1ccc(NC(=O)c2c(NCc3cccc(OC)c3)sc3c2CCC3)cc1", "Potency": "inconclusive: 17.8 µM [inhibitor, single point]"}, {"smiles": "O=C(NC(C(=O)Nc1ccccc1)C1CCN(C(=O)c2cccc(F)c2)CC1)c1ccc(F)cc1", "note": "(stereo not drawn)", "Potency": "inconclusive: 1.12 µM [inhibitor, partial curve, poor fit]"}, {"smiles": "CS(=O)(=O)N1CCC(C2CCN(C(=O)c3ccn[nH]3)C2)CC1", "note": "(stereo not drawn)", "activity, negative = inhibition": "inactive: 4.02%"}, {"smiles": "CCc1cnc(C)nc1N1CCN(Cc2ccccc2F)C(CCO)C1", "note": "(stereo not drawn)", "activity, negative = inhibition": "inactive: -27%"}, {"smiles": "O=C1N(Cc2ccccc2)C[C@H]2CN(Cc3cccs3)CCN12", "activity, negative = inhibition": "inactive: -27.7% [at 44.1 µM]"}, {"smiles": "CC(C)CS(=O)(=O)Nc1ccc([C@H]2OCC(=O)N[C@@H]2CO)cc1", "activity, negative = inhibition": "inactive: 6.33% [at 44.1 µM]"}, {"smiles": "c1cc2c(cc1OC1CN(CC3CCCCC3)C1)OCO2", "Potency": "inconclusive: 11.2 µM [inhibitor, partial curve]"}, {"smiles": "Cc1ncsc1CN1CCCCC1c1nc(CCOCC2CC2)no1", "note": "(stereo not drawn)", "outcome": "inactive"}, {"smiles": "COc1ccccc1NC(=O)Cn1c(=O)n(CCc2ccccc2)c(=O)c2sc3ccccc3c21", "Potency": "inconclusive: 4.47 µM [inhibitor, partial curve, poor fit]"}, {"smiles": "COc1cc(NC(=O)Cn2nc(C(F)(F)F)c3c2CCCC3)cc(OC)c1OC", "Potency": "inconclusive: 20 µM [inhibitor, single point]"}, {"smiles": "CCOc1ccccc1CN1CCC2(CCN(C(=O)c3ccccc3Cl)CC2)Oc2ccccc21", "Potency": "inconclusive: 11.2 µM [inhibitor, partial curve, poor fit]"}, {"smiles": "CCc1nc2ccccc2n1CCCCOc1ccc(Cl)cc1", "Potency": "inconclusive: 10 µM [inhibitor, single point]"}, {"smiles": "CCCCN(CCCC)S(=O)(=O)c1ccc(C(=O)Nc2sc3c(c2C(N)=O)CCN(CC)C3)cc1", "Potency": "inconclusive: 10 µM [inhibitor, single point]"}, {"smiles": "Cc1cccc(OCC(=O)Nc2c(C(=O)N3CCN(c4ccccc4)CC3)oc3ccccc23)c1", "Potency": "active: 11.2 µM"}, {"smiles": "COc1ccc(N2CCN(c3oc(-c4ccccc4C)nc3S(=O)(=O)c3ccccc3)CC2)cc1", "Potency": "inconclusive: 10 µM [inhibitor, single point]"}]}]}
